# Measured values reported in PubChem BioAssay AID2675 (National Center for Advancing Translational Sciences (NCATS), 2010).
# Among all 280,000 compounds or so, about 100 (0.036%) were called active. This list was built around the results that the source calls inconclusive (neither active nor inactive); the mix of calls is not that of the screen. Calls follow the shape of the dose curve; as a rule, active = well fitted inhibition curve with a large enough effect in the signal ratio, with a control signal flat (not every such curve was filed as active); inconclusive = small, poorly fitted or top-dose-only effect, or effect the other way, or a change in a side signal; inactive = no such curve, though single readings can be large or run the other way; the % refers to the signal ratio. Potencies beside an inconclusive call are fits to weak or partial responses and may not hold up. “Side channel” marks fits to a control or component signal instead of the main read-out.
# Target: Muscleblind-like protein 1 (Homo sapiens) (UniProt Q9NR56)
# Experiment: qHTS Assay for Inhibitors of MBNL1-poly(CUG) RNA binding
# Conditions: TR-FRET MBNL1-His/biotin-(CUG)12 binding, 665/545 ratio; series mostly up to 57.5 µM
# Procedure, shortened: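 Ratiometric TR-FRET (665 over 545 nm, excitation 340 nm) tracks disruption of MBNL1-His/biotin-(CUG)12 complex after 60 min at room temperature, with compounds at 92 nM to 58 uM final.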
# Potency is read from the fitted curve at half-maximal effect; tags tell the direction and shape of the fitted curve or compound fluorescence and quenching.
# Sequence of UniProt Q9NR56 (Q9NR56 whole entry, looked up): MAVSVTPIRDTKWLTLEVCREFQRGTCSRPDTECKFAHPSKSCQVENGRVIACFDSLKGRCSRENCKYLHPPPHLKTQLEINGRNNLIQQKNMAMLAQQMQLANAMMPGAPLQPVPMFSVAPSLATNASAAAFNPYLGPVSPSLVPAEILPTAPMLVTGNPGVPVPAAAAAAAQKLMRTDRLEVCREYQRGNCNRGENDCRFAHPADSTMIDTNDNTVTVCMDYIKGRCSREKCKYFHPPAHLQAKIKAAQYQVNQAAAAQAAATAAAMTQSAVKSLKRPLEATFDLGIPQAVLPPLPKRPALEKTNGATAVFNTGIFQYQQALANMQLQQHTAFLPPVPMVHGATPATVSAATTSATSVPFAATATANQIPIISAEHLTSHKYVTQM
row,SMILES,Potency
1,COc1cc(/C=N/NC(=O)c2cccc([N+](=O)[O-])c2)cc(OC)c1O,"inconclusive: 5.01 µM [quencher, side channel, full curve]"
2,COC(=O)/C(C#N)=C/c1c[nH]c2ccccc12,"inconclusive: 15.8 µM [quencher, side channel, partial curve]"
3,COc1ccc2[nH]cc(C(=O)CN3CC(C)CC(C)C3)c2c1 (centres undefined),inactive
4,Cc1ccc(CNC(=O)CNS(=O)(=O)c2cccc3nsnc23)cc1,"inconclusive: 12.6 µM [quencher, partial curve]"
5,O=C(CCS(=O)(=O)c1cccc2nsnc12)NCc1ccccc1Cl,"inconclusive: 14.1 µM [quencher, partial curve]"
6,CC(C)Oc1ccc2c(=O)c(-c3ccccc3)coc2c1,"inconclusive: 794 µM [inhibitor, single point]"
7,Cc1ccc(NC(=O)c2cccc(N3C(=O)C4C5CCC(C5)C4C3=O)c2)c(C)c1 (centres undefined),"inconclusive: 5.62 µM [fluorescent, side channel, single point]"
8,CCOc1ccc(C(=O)COC(=O)CC)cc1,"inconclusive: 0.501 µM [quencher, side channel, single point]"
9,CC(=O)Nc1nc2ccc(-c3nc4ccccc4o3)cc2s1,inactive
10,O=C(CSc1n[nH]c(=O)[nH]c1=O)c1cccc([N+](=O)[O-])c1,"inconclusive: 14.1 µM [quencher, side channel, partial curve]"
11,O=S(=O)(CCSc1nc2ccccc2s1)c1nc2ccccc2s1,inactive
12,O=C(NN1C(=O)/C(=C/c2ccc(O)cc2)SC1=S)c1cccc(O)c1,"inconclusive: 28.2 µM [quencher, side channel, partial curve]"
13,Cn1c(SCC(=O)Nc2ccc3cn[nH]c3c2)nnc1-c1cccs1,inactive
14,COC(=O)C1CCN(c2ccc([N+](=O)[O-])cc2[N+](=O)[O-])CC1,"inconclusive: 14.1 µM [quencher, side channel, partial curve]"
15,Cc1ccccc1-n1c(C)cc(/C=C2\NC(=O)NC2=O)c1C,"inconclusive: 39.8 µM [quencher, side channel, single point]"
16,CSc1nc(C)c2c(n1)N(c1ccc(C(C)C)cc1)CC2,"inconclusive: 6.31 µM [inhibitor, single point]"
17,O=[N+]([O-])/C=C1\C=CC=CN1Cc1ccc(Cl)cc1,"inconclusive: 25.1 µM [quencher, side channel, partial curve]"
18,COc1cccc(NC(=O)CSc2ccc(-c3ccco3)nn2)c1,"inconclusive: 28.2 µM [quencher, side channel, single point]"
19,Cc1ccccc1N(C(=O)Cn1nnc(-c2ccc(F)cc2)n1)C(C(=O)NC(C)(C)C)c1ccncc1 (centres undefined),"inconclusive: 7.08 µM [quencher, side channel, partial curve]"
20,O=S(=O)(c1ccc(N2CCN(S(=O)(=O)c3ccc4c(c3)OCCO4)CC2)nc1)N1CCCC1,"inconclusive: 28.2 µM [fluorescent, side channel, single point]"

row,SMILES,Potency
1,O=C(COc1cccc(NC(=O)c2cccc([N+](=O)[O-])c2)c1)c1ccc(F)cc1,"inconclusive: 12.6 µM [quencher, side channel, partial curve]"
2,Cc1ccccc1Nc1cc2ccccc2c(=O)[nH]1,"inconclusive: 14.1 µM [quencher, side channel, partial curve]"
3,O=C(C1=C(O)C(=O)N(CCN2CCOCC2)C1c1ccco1)c1cc2ccccc2o1 (centres undefined),"inconclusive: 22.4 µM [quencher, side channel, single point]"
4,CCn1c2ccc(C)cc2c2nc3cc(C(=O)O)ccc3nc21,"inconclusive: 20 µM [quencher, side channel, single point]"
5,O=C(c1ccc(-c2nnc(Nc3cccc(Cl)c3)c3ccccc23)cc1)N1C[C@H]2C[C@H](C1)c1cccc(=O)n1C2,"inconclusive: 28.2 µM [quencher, side channel, partial curve]"
6,COc1ccccc1/C=N/n1cnnc1,"inconclusive: 2.82 µM [fluorescent, side channel, partial curve]"
7,CN(C)c1nc(NCc2ccccc2)nc(N/N=C/c2ccc(Br)cc2)n1,inactive
8,CCN(CC)c1cc(C(F)(F)F)nc(-c2ccccn2)n1,inactive
9,CNC(=S)N(Cc1ccc(OC)cc1)Cc1cc2ccc(C)cc2[nH]c1=O,"inconclusive: 11.2 µM [quencher, side channel, partial curve]"
10,CC(=O)NC(Cc1c[nH]c2ccccc12)C(=O)N1CCc2ccccc2C1 (centres undefined),"inconclusive: 6.31 µM [fluorescent, side channel, single point]"
11,COc1ccc(NC(=O)C(c2cc3c(cc2[N+](=O)[O-])OCO3)N2CCN(C=O)CC2)cc1 (centres undefined),"inconclusive: 39.8 µM [quencher, side channel, single point]"
12,COc1cc(/C=N/NC(=O)c2cnccn2)ccc1O,"inconclusive: 28.2 µM [quencher, side channel, partial curve]"
13,Cc1ccc(C(=O)Nc2c3c(nn2C(C)(C)C)CS(=O)(=O)C3)cc1[N+](=O)[O-],"inconclusive: 20 µM [quencher, side channel, partial curve]"
14,N#C/C(=N\Nc1ccc([N+](=O)[O-])cc1)C(N)=S,"inconclusive: 3.55 µM [quencher, side channel, partial curve]"
15,Cc1ccc(OCC(=O)Nc2ccc3c(c2)C(=O)N(CCC(=O)O)C3=O)cc1,"inconclusive: 15.8 µM [quencher, side channel, partial curve]"
16,COCc1nnc(NC(=O)c2cc(OC)c(OC)cc2[N+](=O)[O-])s1,"inconclusive: 25.1 µM [quencher, side channel, single point]"
17,CC(C)(C)c1csc(Sc2ccc([N+](=O)[O-])cn2)n1,"inconclusive: 15.8 µM [quencher, side channel, partial curve]"
18,CC(=O)c1ccc(N(CC(=O)NC2CCCC2)C(=O)CCC(=O)Nc2cc(C)on2)cc1,inactive
19,CC(C)Cc1nnc(NC(=O)c2cc([N+](=O)[O-])ccc2N2CCOCC2)s1,"inconclusive: 12.6 µM [quencher, side channel, partial curve]"
20,O=Cc1cccc(OC(=O)/C=C/c2ccco2)c1,inactive

row,SMILES,Potency
1,O=C(Oc1ccc(Br)cc1C(=S)N1CCOCC1)c1cccc([N+](=O)[O-])c1,"inconclusive: 14.1 µM [quencher, side channel, partial curve]"
2,Cc1ccc(OCC(=O)c2c[nH]c3ccccc23)c([N+](=O)[O-])n1,"inconclusive: 14.1 µM [quencher, partial curve]"
3,CCOC(=O)c1cc(-c2ccc(OC)cc2)nc2c1c(C)nn2CCC#N,"inconclusive: 20 µM [quencher, side channel, partial curve]"
4,CCOC(=O)C(NC(=O)CC)(Nc1ccc(S(=O)(=O)Nc2onc(C)c2C)cc1)C(F)(F)F (centres undefined),inactive
5,O=C(Nc1cccc(NC(=O)c2nccc3ccccc23)c1)c1ccco1,"inconclusive: 20 µM [quencher, side channel, partial curve]"
6,CC1CN(C(=S)NC(=O)c2ccco2)CC(C)O1 (centres undefined),"inconclusive: 39.8 µM [fluorescent, side channel, single point]"
7,CCOC(=O)c1c(NC(=O)c2cc(CC(C)C)on2)sc(C(C)=O)c1C,"inconclusive: 31.6 µM [quencher, side channel, partial curve]"
8,CCC(=O)NNC(=O)CSc1nnc(-c2ccccc2)c(-c2ccccc2)n1,"inconclusive: 25.1 µM [quencher, side channel, partial curve]"
9,OC1CN=C2CCCc3c2n(c2ccc(Cl)cc32)C1 (centres undefined),"inconclusive: 17.8 µM [quencher, side channel, single point]"
10,Cn1c(-c2ccc(=O)[nH]c2)nc2ccccc21,inactive
11,Cc1ccc(NS(=O)(=O)c2ccc(OCC(=O)NCc3ccncc3)cc2)cc1,"inconclusive: 0.355 µM [fluorescent, side channel, full curve]"
12,O=C(c1ccncc1)c1ccc(N2CCN(C3CC(=O)N(Cc4cccs4)C3=O)CC2)cc1 (centres undefined),"inconclusive: 14.1 µM [quencher, side channel, partial curve]"
13,CC(=O)Oc1ccc(N2C(=O)c3cccc4c([N+](=O)[O-])ccc(c34)C2=O)cc1,"inconclusive: 2.51 µM [quencher, side channel, full curve]"
14,Cn1c(=S)c2[nH]c(SCCN3CCCC3)nc2n(C)c1=O,"inconclusive: 28.2 µM [quencher, single point]"
15,COc1ccc(/C=C2\Oc3cc(OCC(=O)N4CCC(C(=O)O)CC4)ccc3C2=O)c(OC)c1,"inconclusive: 14.1 µM [quencher, side channel, partial curve]"
16,Cc1ccc(C(=O)N/C(=C\c2cn(C)c3ccccc23)C(=O)NCCCn2ccnc2)cc1,inactive
17,COc1cc2c(cc1NC(=O)COC(=O)[C@@H](NS(=O)(=O)c1cccc(Cl)c1)C(C)C)oc1ccccc12,"inconclusive: 2.82 µM [quencher, side channel, partial curve]"
18,O=C(c1ccccc1)N1CCN(c2ncnc3c2cnn3-c2ccccc2)CC1,inactive
19,COc1ccc2oc(=O)c(C(=O)NC(C)c3ccccc3)cc2c1 (centres undefined),"inconclusive: 3.55 µM [quencher, side channel, full curve]"
